The test system of one assay is PBMCs (responder cells). Briefly: MLR assay (mixed lymphocyte reaction). The note with it: allo co-culture, donor 2, various Lenalidomide concentrations. The format is cell-based. How it is done:
Next, allo-reactivity towards edited T cells (B2M^neg/TCR^neg) was tested using an MLR assay (mixed lymphocyte reaction). In this assay PBMCs (“responder cells”) were mixed with irradiated auto or allo T cells (“stimulator cells”). At the end of the assay, the activation of the responder cells was evaluated by measuring the cell proliferation in the co-culture, with cell proliferation serving as a proxy for immune activation. In the assay shown in FIG. 3C, both auto (donor 1) & allo (donor 2 & 3) were evaluated for immune activation following co-culture. […] As expected, immune activation was reduced upon deletion of B2M & TRAC from the T cells, as evident by the reduced proliferation in both donors tested.

Assay [1] has as its system CAR-T cells expressing anti-CD19 CAR. Briefly: Cell expansion and viability of CAR-T cells expressing anti-CD19 CAR. The format is cell-based, human.
In assay [2] the test system is CAR-T cells expressing anti-CD70 CAR. Nature of the assay: Cell expansion and viability of CAR-T cells expressing anti-CD70 CAR. It is filed as cell-based, human.
Assay [3] has as its system anti-BCMA CAR-T cells. Briefly: In vitro expansion of anti-BCMA CAR-T cells in the presence or absence of Lenalidomide. It is filed as cell-based, human. The following applies: Lenalidomide 0.5 uM to 10 uM, in the tested time period. The method, then:
Anti-BCMA CAR-T cells were used in this Example as exemplary CAR-T cell. The anti-BCMA CAR-T cells express an anti-BCMA CAR comprising the amino acid sequence of SEQ ID NO: 131, a disrupted TRAC gene having the anti-BCMA CAR coding sequence inserted, and a disrupted β2M gene.
The CAR-T cells were thawed and expanded in-vitro in the presence or absence of Lenalidomide. Multiple concentrations of Lenalidomide were added to the culture media, to evaluate the activity of Lenalidomide across a wide range of concentrations, from 0.5 uM to 10 uM.

The test system of a further assay is anti-CD19 CAR-T cells. Nature of the assay: Editing efficiency of anti-CD19 CAR-T cells. The format is cell-based, human. The source says: TRAC-% was above 90% on Lenalidomide treatment or non-treated cells on both day 6/7 and day 13/15.
A further assay concerns MM.1S subcutaneous tumor. Nature of the assay: MM.1S subcutaneous tumor model in mice. The note with it: single arm treatment compared to no treatment arm; Lenalidomide 1.5 or 10 mg/kg; 3 million CAR-T cells.
For assay [4], the system named is anti-BCMA CAR-T cells. Briefly: anti-BCMA CAR-T cell expansion in mouse peripheral blood (human CD45+ staining, BD TruCount). The format is in vivo, mice. The following applies: co-administration of Lenalidomide, dose dependent, 2 & 3 weeks after CAR-T dosing. The method, then:
Presence of human cells in mouse blood was evaluated using staining for human CD45+, and the number of human cells per ul of mouse blood was calculated using BD TruCount vials per manufacturer's protocol. Human T cells were quantified in mouse blood ˜1, 2 & 3 weeks after the CAR-T cells dosing to mice.

Another assay deals with NK cells. Briefly: Cytokine secretion after co-culture of NK cells with K562 cells. It is filed as cell-based. The note with it: co-culture with K562, Lenalidomide added. How it is done:
Additionally, cytokine secretion was tested at the end of the co-culture described above, following co-culture of NK cells with B2M^neg T cells, K562 cells (a B2M^neg cell line, commonly used as a positive control for activation of NK cells due to lack of B2M expression), and unedited T cells (used as a negative control for NK cells activation).

As for `Nc1cccc2c1CN(C1CCC(=O)NC1=O)C2=O` (stereo not drawn) [Lenalidomide], the “allo reactivity (proliferation) towards unedited T cells” value in the assay with PBMCs (responder cells) was “may in some cases enhance allo reactivity”. Moreover, the “cell expansion and viability” value in assay [1] is “enhance cell expansion and viability”; in assay [2], “enhance cell expansion and viability”. Also, the “fold higher expansion of anti-BCMA CAR-T cells” value in the assay with anti-BCMA CAR-T cells [3] was 5-30 fold. Besides, the “effect on CAR+%” value in the assay on anti-CD19 CAR-T cells (Lenalidomide treatment) was “did not significantly alter”. Further, the “effect on B2M-%” value with anti-CD19 CAR-T cells (lenalidomide treatment, day 6/7 and day 13/15) is listed as “without significant changes”. Besides, in the assay with MM.1S subcutaneous tumor, the “effect on tumor regression and mouse survival” value is listed as “minimal effect”. The “numbers / expansion of the CAR-T cells in mouse blood” value with anti-BCMA CAR-T cells [4] is given as “significantly increase”. Further, in the assay with NK cells, the “cytokine secretion of NK cells” value was “Upregulation of secretion of several cytokines”.

The record behind these values is patent publication US20220193134A1, “CO-USE OF LENALIDOMIDE WITH CAR-T CELLS” (CRISPR THERAPEUTICS AG, priority 2020, published 2022).
